# Article PMC6919601, “Identification of Plasmodium dipeptidyl aminopeptidase allosteric inhibitors by high throughput screening” (PLoS ONE, 2019)
# The whole screen tested about 110,000 compounds, of which about 230 (0.21%) showed an effect of 50% or more. Some of the results follow.
# Target: DPAP1 (Plasmodium falciparum, UniProt Q8IIJ9)
# Experiment: primary screen, percent inhibition; read by cleavage of a fluorogenic dipeptide substrate; higher = more effect of the substance
# Set-up: species or system P. falciparum D10 trophozoite lysates; single well
# 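Note: 30 min substrate incubation versus DMSO and 10 µM JCP410 controls.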
# DPAP1, sequence (Q8IIJ9 whole entry, looked up): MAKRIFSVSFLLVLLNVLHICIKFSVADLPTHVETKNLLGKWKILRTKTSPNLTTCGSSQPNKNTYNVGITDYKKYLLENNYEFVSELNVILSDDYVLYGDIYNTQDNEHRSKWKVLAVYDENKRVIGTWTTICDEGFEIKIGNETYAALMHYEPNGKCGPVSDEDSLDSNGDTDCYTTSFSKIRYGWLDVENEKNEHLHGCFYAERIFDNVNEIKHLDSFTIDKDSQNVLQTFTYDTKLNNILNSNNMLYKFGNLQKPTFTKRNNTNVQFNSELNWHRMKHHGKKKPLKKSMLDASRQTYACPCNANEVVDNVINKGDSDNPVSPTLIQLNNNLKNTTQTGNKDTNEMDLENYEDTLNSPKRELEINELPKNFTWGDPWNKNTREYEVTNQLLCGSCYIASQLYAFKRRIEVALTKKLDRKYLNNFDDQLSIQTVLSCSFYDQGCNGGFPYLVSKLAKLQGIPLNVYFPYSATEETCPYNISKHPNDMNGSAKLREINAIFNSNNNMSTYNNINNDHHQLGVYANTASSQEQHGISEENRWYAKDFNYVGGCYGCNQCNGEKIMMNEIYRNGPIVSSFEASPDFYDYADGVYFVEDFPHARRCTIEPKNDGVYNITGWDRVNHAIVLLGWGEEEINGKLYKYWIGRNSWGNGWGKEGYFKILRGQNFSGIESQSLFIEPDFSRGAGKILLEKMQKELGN
row,Structure (SMILES),% Inhibition @ 10 uM [%]
1,C=CCn1c(SCC#N)nc2sc3c(c2c1=O)CCC3,4.33
2,C=CCOc1ccc(C2C3=C(O)CC(C)(C)CC3=NC3=C2C(=O)CC(C)(C)C3)cc1OCC (centres unmarked),-0.759
3,CC(=O)c1c(C)n(-c2ccc(C)cc2)c2ccc(O)cc12,-2.2
4,Nc1[nH]nc2c1C1(CCCC1)Cc1ccccc1-2,-7.7
5,CCOc1ccccc1-c1nnc(-c2ccccc2C)o1,0.947
6,COc1ccc(-n2ncc3c(NCCc4ccccc4)ncnc32)cc1,4.46
7,O=C(Nc1ccc2c(c1)Cc1ccccc1-2)c1ccco1,-4.92
8,O=C(O)/C(=C/c1cccs1)NC(=O)c1ccccc1,4.98
9,COc1cc2c(cc1OC)C(c1cccc(F)c1)NCC2 (centres unmarked),10.1
10,OCCN(Cc1ccccc1)Cc1ccc(-c2ccccc2)cc1,4.8
11,O=C(CCNS(=O)(=O)c1ccc(Cl)cc1)NCCc1ccccc1,-5.64
12,C#C[C@H](CCC)NC(=O)[C@H](Cc1c(F)cccc1F)NC(=O)c1ccc(-c2cc(C(=O)O)ccc2Cl)cc1,-5.2
13,COc1ccc(CCNC(=O)CSCc2ccc(F)cc2)cc1OC,1.97
14,N#Cc1noc(C(=O)c2ccccc2)c1N,5.13
15,Cc1oc(-c2ccccc2F)nc1CS(=O)(=O)CC(=O)N1CCCCCC1,-1.89
16,Oc1nc(NCc2ccco2)nnc1Cc1ccccc1,0.457
17,COc1cc2c(cc1OC)CN(Cc1ccoc1)CC2,5.37
18,Cc1nnc(NC(=O)c2cc(S(=O)(=O)N3CCOCC3)ccc2Cl)s1,-10.2
19,COCC(C)NCc1ccc(Br)cc1 (centres unmarked),-2.91
20,CCOC(=O)N1CCN(C(=O)c2cc(-c3ccc(C)cc3C)[nH]n2)CC1,5.56
21,CCOC(=O)c1sc2ccccc2c1S(=O)(=O)NCc1ccccc1,-2.29
22,Cc1ccc(N2C(=O)CC(NCCc3ccccc3Cl)C2=O)cc1 (centres unmarked),1.28
23,CC(=O)Nc1ccc(Nc2nc(-c3c(C)nc4cc(C)ccn34)cs2)cc1,25.6
24,COCCCN(Cc1ccco1)C(=O)Cn1ncc2c3ccccc3nc-2c1O,0.275
25,N#Cc1c(NC(=O)COCc2cc(-c3ccc(F)cc3)on2)sc2c1CCC2,5.32
26,O=C(c1ccc(CNS(=O)(=O)c2ccc(Br)cc2)cc1)N1CCc2ccccc2C1,-5.22

row,Structure (SMILES),% Inhibition @ 10 uM [%]
1,CCOc1ccccc1CNC(=O)C1=C(C)C(=O)OC12CCCCCC2,0.49
2,CCC1CCCCN1C(=O)c1cc2c(=O)oc3ccccc3c2s1 (centres unmarked),-3.48
3,Cc1ccc(S(=O)(=O)NC(C)C(=O)Nc2ccc(Oc3ccccc3)cc2)cc1 (centres unmarked),0.145
4,COc1cccc(S(=O)(=O)Nc2ccc(C(=O)Nc3ccncc3)cc2)c1,-1.04
5,C=CCNC(=O)c1cc(S(=O)(=O)N2CCCC(C)C2)ccc1F (centres unmarked),1.21
6,c1c(C23CC4CC(CC(C4)C2)C3)nc2nc3c(nn12)CCCC3,-3.92
7,CC(NC(=O)CCCn1sc2ccccc2c1=O)C12CC3CC(CC(C3)C1)C2 (centres unmarked),-4.68
8,Cc1occc1C(=O)Nc1cccc(Cl)c1C,-1.24
9,CCc1cccc2c(C#N)cn(CC(=O)NCc3ccco3)c12,-3.63
10,O=C(NCc1cccs1)C1CCCN1S(=O)(=O)c1cccc2nsnc12 (centres unmarked),8.9
11,CCCC(=O)C1=C(N2CCN(C3=C(C(=O)CCC)C(=O)CC(C)(C)C3)CC2)CC(C)(C)CC1=O,-8.49
12,COc1cccc(C(=O)N2CCc3cc(OC)c(OC)cc3C2c2ccccc2)c1 (centres unmarked),4.96
13,COC(=O)CC1(C)OCC(CN2CCCCC2)O1 (centres unmarked),4.54
14,Cc1nn(C(=O)C(C)N2C(=O)c3ccccc3C2=O)c(C)c1Br (centres unmarked),-3.64
15,Cc1ccc(C(=O)Nc2ccc3c(c2)C(=O)N(CC2CCCO2)C3=O)cc1 (centres unmarked),4.75
16,N#CC1=C(N)Oc2c(c(O)nc3ccccc23)C1c1ccc(O)cc1 (centres unmarked),-4.04
17,CCC(Sc1nc2nccnc2c(=O)n1Cc1ccc2c(c1)OCO2)C(=O)NC1CCCCC1 (centres unmarked),-1.26
18,CC(C)C[C@H](NC(=O)OCc1ccccc1)C(=O)NC(C#N)CC(C)(C)C (some centres unmarked),-3.04
19,CC1CCc2nn(CC(=O)NC3CCN(Cc4ccccc4)CC3)cc2C1 (centres unmarked),1.8
20,O=C(O)Cn1nnc(-c2ccccc2)n1,-2.28
21,Cc1ccc(CN2CCC(CNC(=O)c3cc(C)nc4c3c(C)nn4-c3ccc(C)cc3)C2)cc1 (centres unmarked),-9.36
22,CCOc1ccc(-c2nnc(NC(=O)c3ccccc3Br)s2)cc1,4.35
23,Cc1ccc(S(=O)(=O)Cc2nc(-c3ccc(C(=O)N4CCC5(CC4)OCCO5)cc3)oc2C)cc1,-5.73
24,CC(C)CSc1nc2c(c(=O)[nH]c(=O)n2C)n1Cc1cccc(Br)c1,-3.9
25,COc1ccc(N2C(=O)CC(Nc3ccc(N4CCCCC4)cc3)C2=O)cc1 (centres unmarked),-0.0938
26,CC1=C(C)CC2C(=O)N(c3ccccc3)C(=O)C2C1 (centres unmarked),-3.03

row,Structure (SMILES),% Inhibition @ 10 uM [%]
1,O=c1c(Cl)c(N2CCCCCC2)cnn1C12CC3CC(CC(C3)C1)C2,1.72
2,O=C1c2ccccc2S(=O)(=O)N1Cc1ccc(Br)cc1,6.74
3,COc1ccc(-c2c3c(=O)n(C)c(=O)n(C)c3cn2-c2ccc(C)cc2C)cc1,4.54
4,O=C(c1cc2c(Cl)nc3ccccc3c2s1)N1CCCC1,0.521
5,CCOC(=O)CNC(=O)[C@H](CC(C)C)NC(=O)[C@@H]1CCCN1C#N,-2.35
6,COC(=O)c1cc2oc(C)cc2n1CC(=O)NCCC1=CCCCC1,-6.77
7,CC1(C)NC(C(=O)O)Cc2c1[nH]c1ccccc21 (centres unmarked),-0.197
8,CO/C(O)=C1/C(C)=NC(=S)NC1c1ccccc1 (centres unmarked),-2.87
9,CC(=O)c1cc(C(=O)c2ccccc2)sc1Nc1ccc(C)cc1,-5.28
10,COc1ccc(CN2CCN(c3ccc(F)cc3)CC2)c(C)c1C,-3.65
11,COc1ccc(-c2cc(C(F)(F)F)n3ncc(C(=O)N(C)Cc4cnn(C)c4C)c3n2)cc1OC,-2.9
12,O=C(O)c1cnn(-c2ccccc2)c1-n1cccc1CNCCc1cccs1,4.79
13,CCc1ccc2nc(N3CCC(C(=O)NCCCN4CCCCC4CC)CC3)sc2c1 (centres unmarked),-5.92
14,CCOc1ccc(CCNCc2c(C(=O)O)[nH]c3cc(OC)ccc23)cc1OCC,-6.3
15,CCc1ccc(OCC(O)CN2CCCC2)cc1 (centres unmarked),3.61
16,Cc1coc2c1c(C)cc1oc(=O)c3c(c12)CCC3,-8.61
17,Cc1ccc(S(=O)(=O)N2c3ccccc3C(Nc3ccccc3)CC2C)cc1 (centres unmarked),2.7
18,CCc1ccc(CNC(=O)c2ccc3c(c2)c(C)c(C)n3C)cc1,1.95
19,CC(=O)N1C=Cc2ccccc2C1c1c[nH]c2ccccc12 (centres unmarked),-1.77
20,Cc1oc(-c2cccs2)nc1Cn1c(=O)cc(C)c2c(C)nn(-c3cccc(F)c3)c21,3.96
21,COc1cc2c(cc1OC)C(c1ccc(F)cc1)CC(=O)N2 (centres unmarked),-1.2
22,O=C(NC(=S)n1cnc2ccccc21)C12CC3CC(CC(C3)C1)C2,-1.29
23,Cc1c(C)n(C)c2ccc(C(=O)NCCCOC(C)C)cc12,4.27
24,Cc1ccc(S(=O)(=O)N(CCC#N)CCC#N)cc1,0.0345
25,CC1CCC(N2CCN(c3ccccc3)CC2)C1 (centres unmarked),-9.12
26,S=C(NCc1ccccc1)c1ccccn1,4.22

row,Structure (SMILES),% Inhibition @ 10 uM [%]
1,Cc1nn(C)cc1CNC(=O)Nc1ccc(Cl)c(Cl)c1,-1.26
2,O=C(c1ccccc1Cl)n1cc(Cl)cn1,4.22
3,COc1cc2[nH]c(C)c(C)c2c2c(C)cc(C)nc12,4.33
4,CC(C)C[C@H](NC(=O)OCc1ccccc1)C(=O)NC(CO)CCC(=O)Nc1ccccc1 (some centres unmarked),-2.35
5,Cc1cccc(C)c1NC(=O)c1ccc(Cl)c([N+](=O)[O-])c1,-0.127
6,Cc1ccn2cc(CNC(=O)c3ccc(Br)o3)nc2c1,-5.37
7,Cc1cccc(NC(=O)CCCC(=O)O)n1,-1.56
8,CC1CC(C)CN(C(=O)CCc2nnc3ccc(N4CCCC4)nn23)C1 (centres unmarked),-3.13
9,C1CN(C23CC4CC(CC(C4)C2)C3)CCN1,-0.239
10,CC1CCCC(NC(=O)Cn2ccc3cc(S(=O)(=O)N4CCCC4)ccc32)C1C (centres unmarked),2.45
11,Cc1nn(CC(=O)NC2CCCC(C)C2C)c(=O)c2cc3occc3n12 (centres unmarked),3
12,CCOc1ccc(/C=C2\N=C(c3ccc(Cl)cc3)OC2=O)cc1,1.11
13,COc1ccc(CN2CC(C(=O)NC3CC3)CC2=O)cc1 (centres unmarked),-1.21
14,COc1ccc(C2C(C(=O)Nc3cccnc3)=C(C)Nc3nc(-c4cccs4)nn32)cc1OC (centres unmarked),-2.05
15,COc1ccc2c(OC)cc(-c3ccccc3)nc2c1,3.24
16,CN(C)c1ccc2c(c1)OC(N)=C(C#N)C2c1ccccc1Cl (centres unmarked),-5.48
17,Cc1ccc(C)c(OCC(=O)Nc2nonc2NC(=O)COc2cc(C)ccc2C)c1,6.86
18,Cc1cc(-n2c(SCc3cc(=O)n4ccccc4n3)nc3nnc(C)c-3c2N)ccc1Cl,1.2
19,Cc1cccc(NC(=O)c2cccc(Cl)c2)n1,-3.34
20,Cc1cccc(NC(=O)CSc2ncn(-c3ccccc3)n2)c1,19.1
21,COc1ccc(C2CC(c3ccccc3)=NN2C(=O)c2cc(OC)c(OC)c(OC)c2)cc1 (centres unmarked),-0.273
22,Cc1ccc(-c2cc(C(=O)N3N=C(C(F)F)CC3(O)C(F)F)c3ccccc3n2)s1 (centres unmarked),1.38
23,N#Cc1c2c(c(N3CCOCC3)n3c1nc1ccccc13)CCC2,3.65
